Assay results from the supplement of paper PMC7726561.
Over roughly 1,400 sequences, “thermal melting temperature (Tm) of peptide-HLA complex” has its median near 60; the lowest 2% begin near 45. Some of the results follow.

B1: unnamed (peptide)
chain: QPKLPMRTL
B2: unnamed (peptide)
chain: SPRPNHSYIF
B3: unnamed (peptide)
chain: SPQGQFVVL
B4: unnamed (peptide)
chain: GPLPRTVEL
B5: unnamed (peptide)
chain: MPSEQIRNQL
B6: unnamed (peptide)
chain: SPRPALPALL
B7: unnamed (peptide)
chain: QVRLPLGTL
B8: unnamed (peptide)
chain: RPREVTVSL
B9: unnamed (peptide)
chain: APRQVLDLEDL
B10: unnamed (peptide)
chain: SPIYISRII
B11: unnamed (peptide)
chain: FPVLPGSHL
B12: unnamed (peptide)
chain: SPNSKVNTL
B13: unnamed (peptide)
chain: IPSSHPVSL
B14: unnamed (peptide)
chain: LPSPSPRISL
B15: unnamed (peptide)
chain: VPDTSRIYVAL
B16: unnamed (peptide)
chain: KPASVFVQL
B17: unnamed (peptide)
chain: IPEVSRAVI
B18: unnamed (peptide)
chain: HPIEGSTTVF
B19: unnamed (peptide)
chain: QPLARPNTL
B20: unnamed (peptide)
chain: HPAAKMIVM
B21: unnamed (peptide)
chain: SPRPPLISV
B22: unnamed (peptide)
chain: QPLLREVL
B23: unnamed (peptide)
chain: SPNNPFSRVAL
B24: unnamed (peptide)
chain: MPPSGPRGTL
B25: unnamed (peptide)
chain: RPVLWVGV
B26: unnamed (peptide)
chain: IPTSARSML
B27: unnamed (peptide)
chain: LPAEQRDFL
B28: unnamed (peptide)
chain: GPIYPGHGM
B29: unnamed (peptide)
chain: SPFSSRSPSL
B30: unnamed (peptide)
chain: SPHPGLLLDL
B31: unnamed (peptide)
chain: APRAPSAL
B32: unnamed (peptide)
chain: TPESGRGAF
B33: unnamed (peptide)
chain: VPNQKRLTL
B34: unnamed (peptide)
chain: HPISSEELLSL
B35: unnamed (peptide)
chain: SPLQAPTPL
B36: unnamed (peptide)
chain: LPSILNQL
B37: unnamed (peptide)
chain: IPRRGEIGL
B38: unnamed (peptide)
chain: APAPPTTTTI
B39: unnamed (peptide)
chain: IARNLTQQL
B40: unnamed (peptide)
chain: IPRITIEM
B41: unnamed (peptide)
chain: FPHLVHAEL
B42: unnamed (peptide)
chain: LPHSATVTL
B43: unnamed (peptide)
chain: VPQESRFNL
B44: unnamed (peptide)
chain: RPKLPEDPL
B45: unnamed (peptide)
chain: SPRWGGIM
B46: unnamed (peptide)
chain: KPKTPSLTVF
B47: unnamed (peptide)
chain: TPADARIQIL
B48: unnamed (peptide)
chain: RPNPGFSML
B49: unnamed (peptide)
chain: RPIRQILYL
B50: unnamed (peptide)
chain: SPTSVRQMAL
B51: unnamed (peptide)
chain: APRGPGAEL
B52: unnamed (peptide)
chain: KPIQRTIL
B53: unnamed (peptide)
chain: LPAPKWAEL
B54: unnamed (peptide)
chain: RPFEDQTSL
B55: unnamed (peptide)
chain: YPRLSIPNL
B56: unnamed (peptide)
chain: IPFSNPRVL

The sequences below were run against HLA-B*07:02 (assay: thermal melting temperature (Tm) of peptide-HLA complex; higher = more thermostable pHLA complex). Conditions: C1R-B*07:02.
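Also: cell lysates heated 10 min at 37–73 °C, remaining pHLA pulled down with pan-class I antibody, peptides quantified by DIA-MS versus 37 °C, Tm where half the complex is lost.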

Sequence | thermal melting temperature
B1 | 57 °C
B2 | 57.6 °C
B3 | 60.9 °C
B4 | 59.9 °C
B5 | 56.8 °C
B6 | 60.2 °C
B7 | 60.7 °C
B8 | 59.8 °C
B9 | 60.9 °C
B10 | 58.8 °C
B11 | 61.9 °C
B12 | 58.1 °C
B13 | 56.2 °C
B14 | 60.6 °C
B15 | 63.3 °C
B16 | 61.5 °C
B17 | 61.2 °C
B18 | 51.8 °C
B19 | 59.2 °C

Sequence | thermal melting temperature
B20 | 56.4 °C
B21 | 62 °C
B22 | 61.2 °C
B23 | 58.8 °C
B24 | 53.6 °C
B25 | 60.8 °C
B26 | 59.9 °C
B27 | 61.5 °C
B28 | 59.2 °C
B29 | 45.4 °C
B30 | 57.2 °C
B31 | 53.4 °C
B32 | 53.7 °C
B33 | 61.2 °C
B34 | 58.6 °C
B35 | 62.9 °C
B36 | 59.3 °C
B37 | 57.6 °C
B38 | 61 °C

Sequence | thermal melting temperature
B39 | 57.4 °C
B40 | 62.4 °C
B41 | 59.5 °C
B42 | 60.7 °C
B43 | 57.1 °C
B44 | 59.2 °C
B45 | 61 °C
B46 | 61.7 °C
B47 | 61.1 °C
B48 | 60.4 °C
B49 | 56.3 °C
B50 | 58 °C
B51 | 61.5 °C
B52 | 58.4 °C
B53 | 59.8 °C
B54 | 57.8 °C
B55 | 60.5 °C
B56 | 61.4 °C
